Reference: PMC4336329 (PLoS ONE, 2015)
The campaign covered roughly 310,000 compounds. About 2,200 (0.71%) showed an effect of 50% or more. Effects have a minus sign here. The list shows a part of the results.

target: human ether-à-go-go-related gene (hERG) potassium channel (human, UniProt Q12809); assay: primary screen, population patch clamp on CHO cells stably expressing hERG
Sequence (Q12809 whole entry, looked up): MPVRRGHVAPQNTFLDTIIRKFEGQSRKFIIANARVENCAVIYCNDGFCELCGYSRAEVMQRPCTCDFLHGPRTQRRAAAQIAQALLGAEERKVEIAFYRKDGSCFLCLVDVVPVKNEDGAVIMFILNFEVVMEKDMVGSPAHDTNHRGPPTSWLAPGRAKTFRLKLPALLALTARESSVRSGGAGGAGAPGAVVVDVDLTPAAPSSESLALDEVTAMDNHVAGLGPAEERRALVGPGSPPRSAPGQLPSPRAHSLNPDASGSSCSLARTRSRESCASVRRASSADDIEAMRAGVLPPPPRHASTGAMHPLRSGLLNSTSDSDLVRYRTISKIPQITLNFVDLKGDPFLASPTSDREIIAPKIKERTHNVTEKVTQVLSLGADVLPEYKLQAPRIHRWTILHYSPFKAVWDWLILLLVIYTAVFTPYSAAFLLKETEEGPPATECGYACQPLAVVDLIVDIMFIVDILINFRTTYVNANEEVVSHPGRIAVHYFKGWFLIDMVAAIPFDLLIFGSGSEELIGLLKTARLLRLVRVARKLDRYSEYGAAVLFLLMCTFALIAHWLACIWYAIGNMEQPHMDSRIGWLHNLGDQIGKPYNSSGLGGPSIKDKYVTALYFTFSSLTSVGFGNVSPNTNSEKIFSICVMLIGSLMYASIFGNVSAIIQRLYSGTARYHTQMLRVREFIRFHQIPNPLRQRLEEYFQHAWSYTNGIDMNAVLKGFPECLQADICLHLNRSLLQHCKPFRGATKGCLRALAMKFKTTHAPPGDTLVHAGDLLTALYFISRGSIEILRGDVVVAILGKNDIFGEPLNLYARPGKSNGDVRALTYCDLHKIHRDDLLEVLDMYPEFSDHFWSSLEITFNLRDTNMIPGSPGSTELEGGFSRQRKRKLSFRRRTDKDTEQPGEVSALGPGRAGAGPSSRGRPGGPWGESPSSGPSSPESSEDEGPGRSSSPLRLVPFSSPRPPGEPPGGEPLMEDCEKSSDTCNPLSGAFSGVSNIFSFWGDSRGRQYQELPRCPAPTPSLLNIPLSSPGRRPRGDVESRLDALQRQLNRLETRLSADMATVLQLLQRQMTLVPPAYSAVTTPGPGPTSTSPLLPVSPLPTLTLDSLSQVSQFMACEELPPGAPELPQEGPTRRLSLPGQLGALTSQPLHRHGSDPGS

| SMILES | hERG current change (%, negative = inhibition) at 1uM |
| --- | --- |
| COc1cccc(CNC(=O)Cc2ccc(S(=O)(=O)N3CCOCC3)s2)c1 | 18.8% |
| CC(C)Sc1nc2c(c(=O)[nH]1)C(c1cccs1)C1=C(CC(C)(C)CC1=O)N2 (stereo not drawn) | 12.6% |
| CC(=O)c1cccc(OCc2cc(C(=O)NC3CCN(Cc4ccccc4)CC3)no2)c1 | -9.14% |
| O=C(CSc1nnc(NC(=O)c2ccco2)s1)NCc1ccc2c(c1)OCO2 | 13.8% |
| COc1ccc2c(c1)c(=O)oc1cc(OCC(=O)NC3CC3)ccc12 | 11% |
| COc1ccc(OC)c(S(=O)(=O)NCCC2=CCCCC2)c1 | 9.08% |
| COc1cccc(C(=O)NNC(=O)/C=C/c2ccccc2)c1 | 9.37% |
| CN(C1CCCCC1)S(=O)(=O)c1ccc(NC(=O)C2CCCCC2C(=O)O)cc1 (stereo not drawn) | 10.3% |
| Cc1cccc(NC(=O)CSc2nc(-c3ccccc3)c(C#N)c(=O)[nH]2)c1C | -6.04% |
| COc1cc(C)nc(Nc2nc(C)c(C(C)=O)s2)n1 | 9.53% |
| Cc1nc2nc(C)c(CCC(=O)NC(C)c3ccc4c(c3)OCCO4)c(C)n2n1.Cl (stereo not drawn) | 8.47% |
| CCN(CC)S(=O)(=O)c1ccc(N2CCCC2)c(NC(=O)Cc2ccccc2)c1 | 4.67% |
| Cc1ccc(S(=O)(=O)N2CCN(C(=O)CN3CCN(C)CC3)C2)cc1 | 13.8% |
| O=C(Cn1cnc2cc([N+](=O)[O-])ccc2c1=O)NC(c1ccccc1)c1ccccc1 | 5.21% |
| COc1cc(CNC2CCCC2)cc(OC)c1 | 14.3% |
| Nc1c(C(=O)Nc2ccc3c(c2)OCCO3)nnn1Cc1ccc(Cl)cc1 | 5.81% |
| CCOc1ccc(Cl)cc1S(=O)(=O)N1CCC(C(=O)NCC2CCCO2)CC1 (stereo not drawn) | 8.18% |
| O=C(Nc1nncs1)c1cc2c(s1)CCC2 | 13.2% |
| CCN(CC(=O)Nc1ccc2c(c1)OCCO2)C(=O)CC1CCCC1 | 4.08% |
| COc1ccccc1C(=O)NCC(=O)OC(C)C(=O)NC1CCCCC1C (stereo not drawn) | 12.5% |
| COc1ccccc1C1CCN(c2ccc([N+](=O)[O-])cn2)CC1 | 0.937% |
| O=S(=O)(Cc1ccco1)Cc1nc(-c2ccc(Cl)cc2)cs1 | 9.1% |
| C[C@H](N)CN1CCc2ccc(Br)cc21.O=C(O)/C=C/C(=O)O | 3.97% |

| SMILES | hERG current change (%, negative = inhibition) at 1uM |
| --- | --- |
| Cc1ccnc(N2C(=O)c3ccccc3C2=O)c1 | 12.8% |
| C/C(CC(=O)NCc1ccco1)=N\NC(=O)Cc1ccc(-c2ccccc2)cc1 | 7.56% |
| CSc1ccccc1NC(=O)CNCCCN1CCOCC1.O=C(O)C(=O)O | 7.46% |
| CCOC(=O)c1c(C)oc2cc(Br)c(OC)cc12 | 11.5% |
| O=C(COc1ncnc2cc([N+](=O)[O-])ccc12)NC1CCCCC1 | 10.6% |
| COc1ccc(NC(=O)c2ccco2)cc1NC(=O)c1ccccc1F | 22.2% |
| CNc1nc(N)c([N+](=O)[O-])c(NCCO)n1 | 13.6% |
| CC(C)(C)NCc1cccn1-c1sc2c(c1C#N)CCCC2 | 3.29% |
| CC(C)(C)C1CCC(C(=O)Nc2ccccc2)CC1 (stereo not drawn) | 6.47% |
| COc1ccc(NC2=C(NCCO)C(=O)c3ccccc3C2=O)cc1 | 12.2% |
| Cn1c(CN2CCN(C(=O)c3ccccc3)CC2)nc2cc([N+](=O)[O-])ccc21 | -29.6% |
| N#C/C(=C\c1ccc(OCc2ccccc2)cc1)C(N)=O | 2.11% |
| CC(C)Nc1ncnc2c1cnn2Cc1ccc(Cl)cc1 | 2.45% |
| N#CCSc1nnc(C2CCCCC2)n1Cc1ccccc1 | 3.1% |
| COCCCOc1ccnc(CS(=O)c2nc3ccccc3[n-]2)c1C.[Na+] (stereo not drawn) | 7.48% |
| CCCSc1nc(O)c(C(c2ccc(OC)c(O)c2)c2c(O)nc(SCCC)n(C)c2=O)c(=O)n1C | 4.06% |
| Cc1nc([N+](=O)[O-])cn1CC(O)c1ccccc1 (stereo not drawn) | 27.6% |
| CCN(C(=O)Cn1cnc2ccccc2c1=O)C1CCS(=O)(=O)C1 (stereo not drawn) | 4.39% |
| O=c1c2cc(NC(=S)NC3CCCCC3)ccc2nc2n1CCCCC2 | -9.63% |
| Cc1cccc(C(=S)N2CCOCC2)n1 | 7.26% |
| CCOc1ccccc1NC(=O)C(NCCN(C)C)c1ccccc1.O=C(O)C(=O)O (stereo not drawn) | -49.1% |
| O=C(Cn1c2c(c(-c3ccccc3)cc1=O)CCCC2)N1CCCCCC1 | 9.85% |
| Cc1ccc(S(=O)(=O)N(C)CC(=O)NCC(c2ccc(F)cc2)N2CCOCC2)cc1 (stereo not drawn) | 3.5% |

| SMILES | hERG current change (%, negative = inhibition) at 1uM |
| --- | --- |
| CCOC(=O)c1cnn(C)c1NC(=O)c1ccc(Cl)cc1Cl | 3.54% |
| CCC(C)c1ccc(NC(=S)NCc2cccnc2)cc1 (stereo not drawn) | -7.31% |
| Br.Oc1ccc(C2CNCCc3c2cc(O)c(O)c3Cl)cc1 (stereo not drawn) | 2.61% |
| COCCN(C(=O)c1ccc(NC2CC2)c([N+](=O)[O-])c1)c1c(N)n(CC(C)C)c(=O)[nH]c1=O | 0.665% |
| Cn1nnc2cc(C(=O)NC(C)(C)C)ccc21 | 5.98% |
| COc1ccc(OCC(=O)Nc2cc(NC(=O)c3ccco3)ccc2OC)cc1 | 8.94% |
| COc1cccc(N2CCN(c3ccc4nnc(CCC(=O)N5CCN(C)CC5)n4n3)CC2)c1 | 15.4% |
| Oc1ccc(Cl)cc1CN1CCN(Cc2ccccc2)CC1 | 10.9% |
| COc1ccccc1CC(=O)Nc1ccc(S(=O)(=O)N2CCN(C)CC2)cc1 | 16.3% |
| COc1ccc(Br)cc1S(=O)(=O)NCCN1CCOCC1 | 9.2% |
| Cn1c(SCc2cnc(-c3ccccc3)s2)nnc1C1COc2ccccc2O1 (stereo not drawn) | 4.31% |
| Cc1ccc(C(=O)NCc2ccc3c(c2)OCO3)cc1N1CCCC1=O | 12.6% |
| COC(=O)c1cccc(NC(=O)C2C3CCC(C3)C2C(=O)O)c1 (stereo not drawn) | -1% |
| CC1Cc2nc(SCC(N)=O)n(C)c(=O)c2S1 (stereo not drawn) | 0.645% |
| CCCc1cc(=O)oc2cc(OCC(=O)NCCCn3ccnc3)c(Cl)cc12 | 1.29% |
| Cc1ccc(-n2nc3c(=O)n(CCCC(=O)NCc4ccccc4Cl)nc(C)c3c2C)cc1 | 7.78% |
| O=c1c(-c2ccc(Cl)cc2)[n+]([O-])c2ccccc2n1OCc1nc2ccccc2[nH]1 | 7.99% |
| Cc1ccc(C(O)(C(=O)NNc2ccccn2)c2ccc(C)cc2)cc1 | 9.2% |
| COc1ccc(-c2csc3ncn(-c4ccccc4OC)c(=O)c23)cc1OC | 0.0337% |
| Cc1c(C(=O)Nc2cccc(Cl)c2)oc2ccc(S(=O)(=O)N3CCC4(CC3)OCCO4)cc12 | 2% |
| COc1ccc(S(=O)(=O)N(C)c2ccccc2)c2cccnc12 | -0.411% |
| O=[N+]([O-])c1ccc2c(c1)OCCOCCOCCOCCOCCOCCO2 | -32.5% |
| CC(=C1C(=O)c2ccccc2C1=O)N1CCN(C/C=C/c2ccccc2)CC1 | -4.38% |

| SMILES | hERG current change (%, negative = inhibition) at 1uM |
| --- | --- |
| O=C(CCN1CCN(c2ccccc2)CC1)Nc1ccc(Cl)cc1 | 9.14% |
| Cc1ccc(C(=O)N2CCSC2=S)cc1 | 9.04% |
| Cc1csc(CN(C)C(=O)C2CCC(=O)N(Cc3ccc(Cl)cc3)C2)n1 (stereo not drawn) | 1.23% |
| COc1cccc(NC(=O)Cc2c(C(=O)O)[nH]c3ccccc23)c1 | -1.12% |
| O=C(COC(=O)Cc1cccs1)NCc1ccc(F)cc1 | 17% |
| COc1ccc(NC(=O)CSc2nnc(-c3ccoc3C)n2CCc2ccccc2)cc1 | 1.36% |
| CCN(C(=O)COC(=O)C1CCN(S(=O)(=O)c2ccc3c(c2)OCCO3)CC1)C1CCCCC1 | 18% |
| CN(CCCN1CCCCC1)C(=O)CCc1nnc(C2CCCCC2)o1 | 14.1% |
| CN(c1ccccc1)S(=O)(=O)c1cccc(NC(=O)CN2C(=O)NC3(CCCCC3)C2=O)c1 | 9.71% |
| O=C(NC1CC1)c1ccc(NS(=O)(=O)c2ccccc2)cc1 | 18.4% |
| CCCCNS(=O)(=O)c1ccc2nc(-c3cccs3)cc(C(=O)NCC(OC)OC)c2c1 | 6.15% |
| O=S(=O)(c1ccc(N2CCN(CCO)CC2)nc1)N1CCOCC1 | 0.34% |
| CC1CCCC(C)N1C(=O)COc1ccc(-c2nnco2)cc1 (stereo not drawn) | 9.31% |
| Cc1ccc(-n2nnnc2SCC(=O)N2CCCCC2)cc1 | 2.32% |
| Oc1ccc(Br)cc1/C=N/n1c(C2CCCCC2)n[nH]c1=S | 14.8% |
| COc1cccc(NC(=O)NCc2cccn2C)c1 | 11.2% |
| CC(=O)c1ccc(N2CCN(c3ncccn3)CC2)cc1 | 7.25% |
| Cc1ccc(S(=O)(=O)/N=C(/Nc2ccccn2)c2ccc(Cl)cc2)cc1 | -8.89% |
| CN1CCN(C(=O)c2ccccc2NC(=O)c2ccc(C(C)(C)C)cc2)CC1 | 8.72% |
| O=C1[C@@H]2CSCN2C(=O)CN1Cc1cccc(C(F)(F)F)c1 | 14.3% |
| NC(=O)C1CCN(C(=O)c2ccc3ccccc3c2)CC1 | 13.1% |
